Measurements: PubChem BioAssay (NCI)
Values joined by “and” are separate entries in the source; they are usually repeats but may differ in a detail not shown here. Identical values can stand only once.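 96-well plates; 48 h exposure; 5 concentrations. Endpoints by linear interpolation between flanking doses. Not reached: highest tested concentration assigned. GI50 = concentration required for 50% inhibition of growth. The concentration for full growth arrest is given as TGI.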

Each compound was assayed on NCI-H322M lung (assay: growth of human tumour cells (NCI), 48 h).

| SMILES | TGI | GI50 |
| --- | --- | --- |
| C=C1C(=O)O[C@@H]2/C=C(/C)[C@@H](OC(C)=O)C[C@@H](O)/C(C)=C\[C@@H](OC(=O)[C@]3(C)O[C@@H]3C)[C@@H]12 | > 100 µM |  |
| COC(=O)CC[C@@H](C)[C@H]1CC[C@H]2[C@@H]3CC[C@@H]4C[C@H](O)CC[C@]4(C)[C@H]3CC[C@]12C | 35.8 µM |  |
| Clc1cnc(Nc2ccc(OCCN3CCCC3)cc2)nc1NCc1ccco1 | 9.7 µM | 2.61 µM |
| Oc1c(C(c2ccc(F)cc2)N2CCCCC2)ccc2cncnc12 (configuration not stated) | > 100 µM | 1.73 µM |
| Cc1cc(I)cc(CN(C)CCCN2CCC(C)CC2)c1O | 37.6 µM | 16.6 µM |
| Cc1ccc2sc3c(NCCCN)nc4ccccc4c3c(=O)c2c1 | 3.53 µM | 1.78 µM |
| CCC(=O)OCOc1ccc(/C=C2\CCC(CN(C)C)C2=O)cc1 (configuration not stated) | 30.5 µM |  |
| CN1C(=O)N(C)C2C1NC(=S)N2/N=C/C=C/c1ccccc1[N+](=O)[O-] (configuration not stated) | > 100 µM | 5.7 µM |
| CN(C(=O)C(C)(C)C)c1ccccc1I(=O)=O | > 100 µM | > 100 µM |
| COc1cc2[nH]c3c(c2cc1OC)CCN[C@@]31CC[C@@]2(CC3c4c(cc(OC)c(O)c42)CCN3C)C[C@@H]1OC (some centres not stated) | > 100 µM |  |
| CCOC(=O)C1=C(Nc2ccc(OC)cc2)C(N)=NC1=N | > 100 µM | 4.66 µM |
| CC1(C)C2CC3C(C)(C2)C31c1cc(Cl)ccc1N (configuration not stated) | 36.5 µM |  |
| COc1ccc2c3ccnc(C(F)(F)F)c3n(CCCCN)c2c1 | 19.4 µM | 6.17 µM |
| CSc1ccc(N2C(=O)C3c4[nH]c5ccccc5c4C4CCC(C(C)(C)C)CC4C3C2=O)cc1 (configuration not stated) | 67.1 µM |  |
| CC1(C)CCC2=C(O1)c1ccccc1C(=Nc1ccc([N+](=O)[O-])cc1)C2=O | 30.4 µM |  |
| N#CC1=C(O)NC(O)=C(C#N)C1c1c(Cl)cccc1Cl | > 100 µM |  |
| CC(=O)C(CN1C(=O)c2ccccc2C1=O)C(C)=O | > 100 µM |  |
| O=C1c2ccccc2C(=O)N1CC#CCO | > 100 µM |  |
| CCN1CCN(C(=O)[C@]23CC[C@@H](C)[C@H](C)[C@@H]2C2=CC[C@@H]4[C@@]5(C)CCC(=O)C(C)(C)[C@@H]5CC[C@@]4(C)[C@]2(C)CC3)CC1 | 5.43 µM | 1.57 µM |
| CCOc1ccc2c(c1)C(/C(C(Cl)=C(Cl)Cl)=[N+](/[O-])OC(=O)c1ccccc1)=N2 | > 100 µM |  |
| CCN1CCN(c2ccc(NC(=O)Nc3nc4ccc(-c5ccccc5OC)cc4s3)cc2)CC1 | 3.03 µM | 1.53 µM |
| N#Cc1ccc(-c2ccc(Cl)cc2)n(C2OC(CO)C(O)C(O)C2O)c1=S (configuration not stated) | > 100 µM |  |
| COC(=O)NC(Cc1ccccc1)NC(=O)OC(C)(C)C (configuration not stated) | > 100 µM |  |

| SMILES | TGI | GI50 |
| --- | --- | --- |
| CCOC(=O)c1ccc2nc3n(c2c1)C(c1c(F)cccc1F)SC3 (configuration not stated) | > 100 µM |  |
| C[C@]12CC[C@H]3[C@@H](CC[C@]4(O)C[C@@H](O)CC[C@]34C=O)[C@@]1(O)CC[C@@H]2C1=CC(=O)OC1 | 14.7 µM |  |
| CC1=CC2(C)/C=C(C)/C=C\CC(O)/C=C3/C=CC(=C4C(=O)OC2(CC1C)C4=O)OC3 (configuration not stated) | 45.1 µM | 19.2 µM |
| COC(=O)N[C@@H]1C[C@H]2CC[C@]1(O[Si](C(C)C)(C(C)C)C(C)C)C(=O)C2 | 34.1 µM |  |
| Cc1ccsc1C(NC(=O)c1ccccc1)c1cc(Cl)c2cccnc2c1O (configuration not stated) | 14.5 µM | 0.692 µM |
| Cc1cc(N(CCC#N)CCC#N)ccc1/C(N=Nc1ccc(C(=O)O)cc1)=N\NC(=O)c1ccccc1 | > 100 µM |  |
| O=C(Nc1ccc(Cl)c(Cl)c1)c1ccc(NC2=C(Cl)C(=O)N(Cc3ccccc3)C2=O)cc1 | 71.2 µM | 26 µM |
| CC1(C)OCC2OC(n3cnc4c(N)nc(Cl)nc43)C(OS(C)(=O)=O)C2O1 (configuration not stated) | > 100 µM |  |
| CC(=O)OC1CC2(C)C(=CC1C1SCCS1)CCC1C2CCC2(C)C(OC(C)=O)CCC12 (configuration not stated) | > 100 µM |  |
| COCC(C#N)NC1CC(OC2CC(O)(C(=O)CO)Cc3c(O)c4c(c(O)c32)C(=O)c2c(OC)cccc2C4=O)OC(C)C1O (configuration not stated) | 2.97 µM |  |
| c1ccc2c(N=NSc3ncnc4nc[nH]c34)c3ccccc3nc2c1 | 8.6 µM | 2.52 µM |
| N#Cc1c(/C=C/c2ccccc2)c2c([nH]c1=S)CCCCC2 | > 100 µM |  |
| O=C1CCCC1CC(CN1CCOCC1)Sc1nnnn1-c1ccccc1 (configuration not stated) | > 100 µM |  |
| CCOP(=O)(OCC)C(Nc1ccc(Cl)cc1)c1ccc(F)cc1 (configuration not stated) | > 100 µM |  |
| CN(C)C(=O)N1N[C@H](c2ccccc2)[C@@H]1c1ccccc1 | > 100 µM |  |
| [N-]=[N+]=Nc1cc(=O)[nH]c2ccccc12 | > 100 µM |  |
| Cc1[nH]nc(C(F)(F)F)c1Cc1sc2c(c1C(=O)N1C[C@](C)(O)CO1)c(=O)n(C)c(=O)n2C(C)C | > 100 µM | > 100 µM |
| Cn1nc(C(F)(F)F)cc1-c1cc(Cl)c(OCc2ccc(Cl)cc2)c(-c2ccc(Cl)c(C(F)(F)F)c2)c1O | 6.31 µM | 1.49 µM |
| COc1cc2nc(-c3cccs3)nc(N3CCN(c4ccccc4)CC3)c2cc1OC | > 100 µM |  |
| Nc1nc2cc(Cl)ccc2n1N | > 100 µM |  |
| OC(c1cc(C(F)(F)F)nc2c(Cl)cc(Cl)cc12)C1CCCCN1 (configuration not stated) | > 52.2 µM |  |
| COc1cc(C(c2ccccc2)N2C(=O)CC[C@H]2C(=O)O)cc(OC)c1OC (some centres not stated) | > 100 µM |  |
| O=[N+]([O-])c1ccc2c(c1)C(N1CCN(CCO)CC1)Cc1ccc(F)cc1S2 (configuration not stated) | 25.4 µM |  |

| SMILES | TGI | GI50 |
| --- | --- | --- |
| CCC(=O)NC1=C(Cl)C(=O)C(NC(=O)CC)=C(Cl)C1=O | > 100 µM | > 100 µM |
| O=C(Nc1ccc(Br)cc1)C(=O)C(C(=O)c1ccc(Cl)c(Cl)c1)C1OC(=O)c2ccccc21 (configuration not stated) | 70.4 µM |  |
| Cc1cc2nc3c(C#N)c(C)c(CCCl)c(Cl)n3c2cc1C | 18.1 µM |  |
| COc1cc2ncnc(Oc3ccc(NC(=O)Nc4ccc(CN5CCOCC5)c(C(F)(F)F)c4)c4ccccc34)c2cc1OC | 14.3 µM | 0.643 µM |
| COc1ccc(C(=O)/C=C/c2ccc(OCc3cccc(C(F)(F)F)c3)c(OC)c2)cc1OC | > 1000 µM | 65.2 µM |
| CCC(O)CCCCCCCCCCCCCCC(=O)O (configuration not stated) | > 100 µM |  |
| C=C1c2c(n(S(=O)(=O)c3ccccc3)c3ccccc23)[C@@]2(C(=O)OC)CC3C=CC2N1C3 | > 100 µM |  |
| O=C1C2=C(C(=O)c3ccccc31)C(O)(S(=O)(=O)O)C(O)(S(=O)(=O)O)C1N=CC=CC21 (configuration not stated) | 23.5 µM and 12.6 µM | 2.74 µM and 2.88 µM |
| CC(C)[C@@H](C(=O)O[C@@H]1/C=C/C(=O)O[C@@H](C)CCC/C=C/[C@@H]2C[C@H](O)C[C@H]21)N(C)C | > 68.4 µM | 13.2 µM |
| CC(C)(C)OC(=O)N1C(=O)C2CCCC21 (configuration not stated) | > 100 µM |  |
| COc1cc(C2c3cc4c(cc3[C@@H](NC3CCN(Cc5ccccc5)CC3)C3COC(=O)[C@H]23)OCO4)cc(OC)c1O (some centres not stated) | 10.8 µM and 4.34 µM |  |
| O=C(O)C(Cc1ccccc1)Cc1ccccc1 | > 100 µM |  |
| COc1ccc(/C(=N/O)c2ccccc2C2=Nc3ccccc3C(NCc3ccccc3)O2)cc1C (configuration not stated) | > 100 µM |  |
| Nc1ccc(C#Cc2ccccc2C#CCCCCO)cc1 | 35.5 µM | 17.7 µM |
| C[C@]12CCC(=O)C=C1C[C@@H](O)[C@@H]1[C@@H]2CC[C@@]2(C)[C@H]1CC[C@]2(C)O | > 100 µM |  |
| O=C1OC(OC/C(Br)=C(\Br)COC2OC(=O)C(Cl)=C2Cl)C(Cl)=C1Cl (configuration not stated) | 33.9 µM |  |
| NC1CC(=O)c2c(-c3cccs3)sc(-c3cccs3)c21 (configuration not stated) | > 100 µM | 44.4 µM |
| COc1ccc(C2N(c3ccc(C)c(N=C=O)c3)C(=O)N3C(c4ccc(OC)cc4)N(c4ccc(C)c(N=C=O)c4)C(=O)N23)cc1 (configuration not stated) | > 100 µM |  |
| COc1ccccc1-c1csc(CCC(N)C(=O)O)n1 (configuration not stated) | > 100 µM |  |
| CC(C)OC1=C(CC2(C)OCCO2)C(=O)C12OCCO2 | > 100 µM |  |
| CN1CCN(Cc2ccc(NC(=O)c3cncc(C#Cc4ccc(N)nc4)c3)cc2C(F)(F)F)CC1 | 8.95 µM | 1.62 µM |
| C[C@@H]1CC[C@@H]2[C@@H]1[C@H](OC(=O)/C=C/C1CCCCC1)[C@]1(C3CCCCC3)C[C@@H](OC(=O)CO)[C@@]2(C)O1 | 29 µM | 15.6 µM |
| O=C1C(Cl)N(c2ccc([N+](=O)[O-])cc2)C1c1c[nH]c2ccccc12 (configuration not stated) | > 100 µM |  |

| SMILES | TGI | GI50 |
| --- | --- | --- |
| N#CCCN(CCCCN(CCC#N)C(=O)Nc1ccccc1)C(=O)Nc1ccccc1 | > 100 µM |  |
| NS(=O)(=O)c1nnc(NS(=O)(=O)c2cccc3cccnc23)s1 | > 100 µM |  |
| CCOC(=O)N1CCC(N=C2CSc3nnc(-c4cc(C(F)(F)F)cc(C(F)(F)F)c4)n3N2)CC1 | 12 µM | 2.95 µM |
| CC(C)(C)NCC(O)c1ccccc1Cl (configuration not stated) | > 100 µM | > 100 µM |
| CC(=O)/C=C(/C)[O-].CC(=O)/C=C(/C)[O-].CC(=O)[CH-]C(C)=O.CC(=O)[CH-]C(C)=O.[Zr+4] | > 100 µM | > 100 µM |
| NS(=O)(=O)c1ccc(-c2ccc([As](=O)(O)O)cc2)cc1 | > 100 µM |  |
| COc1cc2nc(-c3cccs3)nc(Nc3ccccc3C(=O)NN)c2cc1OC | > 100 µM |  |
| Cc1cc(C)[n+]2c(c1)C=CC2 | > 100 µM |  |
| C=CC1=C(C)C(/C=c2\[nH]/c(=C/c3[nH]c(CC4NC(=O)C(C)/C4=C\C)c(C)c3CCC(=O)O)c(CC(=O)O)c2C)=NC1=O (configuration not stated) | > 100 µM |  |
| C[Si](C)(C)OC1(C#N)c2ccccc2CCCC12CCCC2 (configuration not stated) | > 100 µM |  |
| COc1cc(/C=C2\[C@@H]3NC(Cc4c(OC)c(C)c(OC)c(OC)c43)C(=O)N2Cc2ccccc2)c(OC)c(C)c1OC | > 100 µM |  |
| CC(NNC(=S)N1CCN(c2ccccn2)CC1)c1nccc2ccccc12 (configuration not stated) | 13.1 µM |  |
| O=C1/C=C/[C@@H](O)[C@@H]2C[C@@H](O)C[C@H]2/C=C/CCC[C@H](CCO)O1 | > 100 µM | 0.319 µM |
| COC(=O)/C=C1\C(CO[Si](C)(C)C(C)(C)C)OC(n2cc(C)c(=O)n(C)c2=O)C1O[Si](C)(C)C(C)(C)C (configuration not stated) | > 100 µM |  |
| O=C(CSc1nc2ccc(I)cc2c(=O)n1Cc1ccccc1)Nc1ccccc1 | 50.4 µM |  |
| COC(=O)[C@]1(C)CCC[C@@]2(C)C3=C(CC[C@H]12)C[C@@H](CC(OC(C)=O)OC(C)=O)[C@@H](C)C3 | 38.6 µM | 16 µM |
| COP(=O)(CP(=O)(OC)OCCC(C)CCC=C(C)C)OC (configuration not stated) | > 100 µM |  |
| Clc1ccc2c(NC3CCC(N4CCCCC4)CC3)ccnc2c1 (configuration not stated) | 65.6 µM |  |
| CCCCCCCCCCCCCCNCC(OC)OC | 30 µM |  |
| CCCCCCCCCCCC(=O)N(CCCCCCCCC)CC(O)C(O)C(OC1OC(CO)C(O)C(O)C1O)C(O)CO (configuration not stated) | 37.6 µM |  |
| CC1(C)CC(=O)C(CC2C(=O)CCCC2=O)C(=O)C1 | > 100 µM |  |
| C1=CC2C(C3CN(c4ccccc4)N=C13)C1C3C4C=CC21C=CC43 (configuration not stated) | > 100 µM |  |
| O=[N+]([O-])c1c(O)c2nonc2c2nn(-c3ccccc3)nc12 | > 100 µM |  |
